Data reported in ChEMBL document CHEMBL1201862, “PubChem BioAssay data set” (2004).
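Compound exposure: 48 hours, 5 concentrations, 96-well plates. The concentration for 50% growth inhibition is given as GI50.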 Active and inactive are the calls of the source. Rule as the data show it: active = GI50 up to about 1.1 µM and inactive = higher.

Key:
Experiment in all cases: growth of human tumour cells (NCI), 48 h
[1] = test system: RXF 393
[2] = test system: HCT-15
[3] = test system: DMS-114
[4] = test system: SNB-75
[5] = test system: XF498
[6] = test system: COLO 205
[7] = test system: SR
[8] = test system: SW-620
[9] = test system: NCI-H522
[10] = test system: MDA-N
[11] = test system: NCI-H460
[12] = test system: SF-268
[13] = test system: MDA-MB-231
[14] = test system: A498
[15] = test system: SK-OV-3
[16] = test system: LXFL 529
[17] = test system: U-251
[18] = test system: CAKI-1
[19] = test system: KM12
[20] = test system: OVCAR-5
[21] = test system: RPMI-8226
[22] = test system: HCC 2998
[23] = test system: KM-20L2
[24] = test system: MOLT-4
[25] = test system: HCT-116
[26] = test system: HOP-92
[27] = test system: BT-549
[28] = test system: NCI-H23
[29] = test system: M14
[30] = test system: DU-145
[31] = test system: HT-29
[32] = test system: LOX IMVI
[33] = test system: T47D
[34] = test system: SN12C
[35] = test system: A549
[36] = test system: NCI/ADR-RES
[37] = test system: UACC-62
[38] = test system: PC-3
[39] = test system: SF-295
[40] = test system: SK-MEL-2
[41] = test system: OVCAR-4
[42] = test system: DMS-273
[43] = test system: OVCAR-3
[44] = test system: M19-MEL
[45] = test system: UO-31
[46] = test system: UACC-257
[47] = test system: OVCAR-8
[48] = test system: NCI-H226
[49] = test system: HL-60
[50] = test system: IGROV-1
[51] = test system: MDA-MB-435
[52] = test system: DLD-1
[53] = test system: Malme-3M
[54] = test system: ACHN
[55] = test system: SF-539
[56] = test system: TK-10
[57] = test system: EKVX
[58] = test system: HOP-18
[59] = test system: HOP-62
[60] = test system: 786-0
[61] = test system: CCRF-CEM
[62] = test system: Hs-578T
[63] = test system: K562
[64] = test system: SNB-19
[65] = test system: SK-MEL-5
[66] = test system: SK-MEL-28
[67] = test system: MCF7

COc1c(O)cc2c(c1OC)-c1ccc(SC)c(=O)cc1C(NC(C)=O)CC2 (configuration not stated)
GI50 [1]: active: 130 nM
GI50 [2]: 68.7 nM
GI50 [3]: active: < 10 nM
GI50 [4]: active: 19.9 nM
GI50 [5]: active: < 10 nM
GI50 [6]: active: 17.2 nM
GI50 [7]: active: 15.3 nM
GI50 [8]: active: 15.5 nM
GI50 [9]: active: 16.2 nM
GI50 [10]: active: 18.2 nM
GI50 [11]: active: 20.3 nM
GI50 [12]: active: 18.3 nM
GI50 [13]: active: 58.9 nM
GI50 [14]: active: 28.6 nM
GI50 [15]: active: 20.5 nM
GI50 [16]: active: < 10 nM
GI50 [17]: active: 16.8 nM
GI50 [18]: active: 50.9 nM
GI50 [19]: active: 14.3 nM
GI50 [20]: inactive: 1140 nM
GI50 [21]: active: 19.2 nM
GI50 [22]: active: 25.6 nM
GI50 [23]: active: 10.9 nM
GI50 [24]: active: 18.9 nM
GI50 [25]: active: 15.5 nM
GI50 [26]: active: 60.7 nM
GI50 [27]: active: < 10 nM
GI50 [28]: active: 19.4 nM
GI50 [29]: active: 18.2 nM
GI50 [30]: active: 35.6 nM
GI50 [31]: active: 15.2 nM
GI50 [32]: active: < 10 nM
GI50 [33]: inactive: > 100000 nM
GI50 [34]: active: 62.5 nM
GI50 [35]: active: 38.2 nM
GI50 [36]: active: 705 nM
GI50 [37]: active: 15.2 nM
GI50 [38]: active: 31.3 nM
GI50 [39]: active: 19.9 nM
GI50 [40]: active: 22.1 nM
GI50 [41]: inactive: 63700 nM
GI50 [42]: active: < 10 nM
GI50 [43]: active: 17.6 nM
GI50 [44]: active: < 10 nM
GI50 [45]: inactive: 1510 nM
GI50 [46]: inactive: 1550 nM
GI50 [47]: active: 23.7 nM
GI50 [48]: active: 89.1 nM
GI50 [49]: active: 14.8 nM
GI50 [50]: active: 18.1 nM
GI50 [51]: active: 18.5 nM
GI50 [52]: active: 12.7 nM
GI50 [53]: active: 29.8 nM
GI50 [54]: active: 120 nM
GI50 [55]: active: 18.8 nM
GI50 [56]: inactive: 26900 nM
GI50 [57]: inactive: 29600 nM
GI50 [58]: inactive: > 100000 nM
GI50 [59]: active: 25.9 nM
GI50 [60]: active: 23.3 nM
GI50 [61]: active: 19.4 nM
GI50 [62]: active: < 10 nM
GI50 [63]: active: 15 nM
GI50 [64]: active: 62.1 nM
GI50 [65]: active: 15.5 nM
GI50 [66]: active: 662 nM
GI50 [67]: active: 26.2 nM
